A compilation of properties of binary mixtures (doi:10.1016/j.jct.2015.02.025)
Some of these densities may be calculated back from excess volumes.

Assay: xn = mol fraction of the nth substance listed
Settings: 298.15 K, 100 kPa

CCCC[n+]1ccccc1.N#C[N-]C#N + O
mass density (x2 = 0.0133): 1068.7 kg/m3
mass density (x2 = 0.0295): 1068.6 kg/m3
mass density (x2 = 0.0452): 1068.4 kg/m3
mass density (x2 = 0.0605): 1068.3 kg/m3
mass density (x2 = 0.0743): 1068.1 kg/m3

CCC[n+]1ccccc1.N#C[N-]C#N + O
mass density (x2 = 0.0124): 1089.8 kg/m3
mass density (x2 = 0.0275): 1089.6 kg/m3
mass density (x2 = 0.0412): 1089.4 kg/m3
mass density (x2 = 0.0565): 1089 kg/m3

CCCCCC[n+]1ccccc1.N#C[N-]C#N + O
mass density (x2 = 0.0406): 1036.2 kg/m3
mass density (x2 = 0.0581): 1036.1 kg/m3
mass density (x2 = 0.075): 1036 kg/m3
mass density (x2 = 0.0913): 1035.9 kg/m3

CC[n+]1ccccc1.N#C[N-]C#N + O
mass density (x2 = 0.0209): 1118.1 kg/m3
mass density (x2 = 0.0516): 1117.6 kg/m3
mass density (x2 = 0.0672): 1117.4 kg/m3
mass density (x2 = 0.0807): 1117.1 kg/m3

CCCCC[n+]1ccccc1.N#C[N-]C#N + O
mass density (x2 = 0.0142): 1053 kg/m3
mass density (x2 = 0.0315): 1052.9 kg/m3
mass density (x2 = 0.0482): 1052.8 kg/m3
mass density (x2 = 0.0644): 1052.6 kg/m3
mass density (x2 = 0.0791): 1052.5 kg/m3
